Assay results reported in PubChem BioAssay AID1347070 (National Center for Advancing Translational Sciences (NCATS), 2019).
Among all 94,000 compounds or so, about 20 (0.02%) were called active. This list was built around the results that the source calls inconclusive (neither active nor inactive); the mix of calls is not that of the screen. The call rests on the fitted dose curve; in most records, active means well fitted activation curve with a large enough effect; inconclusive means small, poorly fitted or top-dose-only effect; inactive means flat fitted curve, though single readings scatter. Potencies of inconclusive entries are left out as doubtful fits.

Assay: qHTS of alpha-syn Inhibitors: NCGC Sytravon Library Screen; on growth rescue (activation): 0% is about no effect
Details: S. cerevisiae alpha-synuclein toxicity rescue, BacTiter-Glo growth, 24 h; growth rescue (activation): at 46.1 µM (top of the series)
From the text: The goal of this project is to identify new chemical probes capable of reversing the toxicity associated with the Parkinson disease-related protein, alpha-synuclein. Compounds will be selected on their ability to restore growth in yeast cells expressing toxic levels of alpha-synuclein. These compounds will provide a complementary approach to deciphering the tangled mechanisms of toxicity and protection that we have uncovered through genome-wide genetic screens and are beginning to uncover in a large-scale proteomics analysis with mass spectroscopy. To this end, a miniaturized assay was developed to be screened against the Molecular Libraries Small Molecule Repository (MLSMR) to discover alpha-synuclein inhibitors. […] The phenotype of interest will be that of an Activator and this screen is run against the NCGC Sytravon Library collection. NIH Chemical Genomics Center [NCGC] NIH Molecular Libraries Probe Centers Network [MLPCN] MLPCN Grant: NS060957 Assay Submitter (PI): Susan Lindquist, Whitehead Institute/MIT
Dispense 2.5 microL yeast galactose medium per 1536-well plate, pin compound, dispense 2.5 microL alpha-synuclein expressing yeast in galactose medium at OD600=0.02 (pregrown in raffinose medium to mid-log phase) per well, incubate for 24 hr at 30 deg C, and cell growth will be measured using 5 microL of Bactiter/Glo reagent to entire plate and read using Luminescence Protocol in ViewLux.
Potency means the concentration at half of the fitted maximal effect; tags describe the fitted curve by direction and shape.

Row | SMILES | growth rescue (activation) | Potency
1 | Cc1ccc(NC(=O)CN(C)Cc2cccs2)cc1Cl | inactive: -2.79% | –
2 | CCOc1cccc2sc(N(Cc3cccnc3)C(=O)C3CCCCC3)nc12 | – | inconclusive [activator, single point]
3 | CCC(CC)C(=O)Nc1ccc(OCc2cc(=O)n3ccsc3n2)cc1 | – | inconclusive [activator, single point]
4 | Cc1ccc(CS(=O)(=O)c2cn(CC(=O)N(C)c3ccccc3)c3ccccc23)cc1 | inactive: 1.42% | –
5 | O=C(c1nc(-c2ccc(Cl)cc2)n2c1CCCCC2)N1CCN(c2ccccc2F)CC1 | inconclusive: 30.6% [activator] | –
6 | CCOC(=O)c1c(NC(=O)COC(=O)c2ccc(S(=O)(=O)C(F)F)cc2)sc(C(=O)N(C)C)c1C | inactive: -5.95% | –
7 | CCCN(CCC)CCCNC(=O)c1cc2c(=O)oc3ccc(C)cc3c2s1 | – | active: 12.6 µM
8 | CC1CCN(C(=O)c2c(NC(=O)c3ccccc3F)sc3c2CCC(C(C)(C)C)C3)CC1 (centres undefined) | – | inconclusive [activator, single point]
9 | CCCN1C(C(=O)c2ccccc2)=C(OC(=O)COc2ccccc2)c2ccccc2S1(=O)=O | inconclusive: -59.8% [activator] | –
10 | CCOc1ccc(NC(=O)CN2C(=O)C(c3ccccc3)=NC23CCC(C)CC3)cc1 (centres undefined) | inactive: 3.94% | –
11 | COc1ccc(C(=O)NCC(c2cccnc2)N2CCc3ccccc3C2)cc1OC (centres undefined) | inactive: 2.3% | –
12 | CC(NC(=O)CCCC1=NS(=O)(=O)c2ccccc2N1)c1ccccc1 (centres undefined) | inactive: -9.6% | –
13 | CC1CCN(C(=O)CCNC(=O)c2ccccc2)CC1 | inactive: 9.67% | –
14 | Cc1ccc2nc(NC(=O)CSc3nccn3Cc3ccc(Cl)cc3)sc2c1 | – | inconclusive [activator, single point]
15 | CCOCCCNC(=O)NC(CCC(C)C)c1c(-n2cccc2)sc2c1CCN(C)C2 (centres undefined) | inactive: -3.93% | –
16 | COc1ccccc1Cc1nc2ccccc2nc1SCC(=O)N1CCC(C)CC1 | – | inconclusive [activator, single point]
17 | CCN(CC(=O)NCCc1ccccc1)S(=O)(=O)c1ccccc1 | inactive: 17.5% | –
18 | COc1ccccc1-c1nnc(SCC(=O)c2ccc(F)cc2)n1-c1ccccc1 | inconclusive: 17.3% [activator] | –
19 | COc1cccc(NC(=O)c2cnc(SCC(=O)N3CCOCC3)n(C)c2=O)c1 | inactive: 1.49% | –
20 | CCCCN(C)CCCNC(=O)Cn1ncc2c3ccccc3n(Cc3cc(C)ccc3C)c2c1=O | inactive: 7.9% | –
21 | COc1ccc(N=Nc2ccc(O)c3ncccc23)cc1 | inconclusive: 45.1% [activator] | –
22 | Cc1ccc(CS(=O)Cc2ccc(C(=O)N3CCN(c4cccc(C)c4C)CC3)o2)cc1 (centres undefined) | inconclusive: 48.2% [activator] | –
23 | Cc1cccc(NC(c2cccc(F)c2)c2ccc3ccc(C)nc3c2O)n1 (centres undefined) | – | inconclusive [activator, single point]
24 | Cc1ccc(C(=O)NCCSc2c(C)[nH]c3ccccc23)cc1C | – | inconclusive [activator, single point]
25 | COc1ccc(-c2nc(S(=O)(=O)c3ccc(Cl)cc3)c(N3CCCCCC3)o2)cc1 | – | inconclusive [activator, single point]

Row | SMILES | growth rescue (activation) | Potency
26 | Cc1ccc(C(=O)c2cn(Cc3ccccc3C)c3nc(C)ccc3c2=O)cc1 | inactive: 18.8% | –
27 | COc1cccc(CNC(=O)CCc2c(C)c3ccc(O)c(C)c3oc2=O)c1 | – | inconclusive [activator, single point]
28 | CC1CCC(NC(=O)C2(C)Cc3ccccc3C(=O)N2Cc2ccccc2Cl)CC1 (centres undefined) | inactive: -5.79% | –
29 | Cc1nnc(SCCCCSc2nnc(C)c(=O)[nH]2)[nH]c1=O | inactive: 1.74% | –
30 | Cc1csc2nc(COC(=O)COc3ccccc3F)cc(=O)n12 | – | inconclusive [activator, single point]
31 | Cc1sc2nc(CSCC(=O)NC3CCCCC3)[nH]c(=O)c2c1C | inactive: 2.44% | –
32 | Cc1cccc(S(=O)(=O)NC2CCCCCCC2)c1 | inconclusive: 33.8% [activator] | –
33 | COc1ccc(OCc2nc3ccccc3n2C(C)c2ccccc2)cc1 (centres undefined) | – | inconclusive [activator, single point]
34 | O=C(Cc1ccccc1)N(Cc1cccnc1)c1nc2c(F)cccc2s1 | – | inconclusive [activator, single point]
35 | N#Cc1cc2ccncc2c2ccccc12 | inconclusive: 56.3% [activator] | –
36 | COc1ccc(NC(=O)c2c(NCc3ccc(C)o3)sc3c2CCCCC3)c(OC)c1 | – | inconclusive [activator, single point]
37 | CCN(CC)c1ccc(NC(=O)c2c(C)nn(-c3ccc(F)cc3)c2-n2cccc2)c(C)c1 | inactive: -6.87% | –
38 | O=C(Nc1ccc(Cl)cc1)c1cnn2c1NC(c1ccccc1)=CC2c1ccccc1 (centres undefined) | – | inconclusive [activator, single point]
39 | COC(=O)c1ccc(NC(=O)c2c(NCc3cccc(F)c3)sc3c2CCCC3)cc1 | inactive: 2.01% | –
40 | Cc1cc(Nc2cccc(C(F)(F)F)c2)nc2ccc(NC(=O)Cc3ccc(Cl)cc3)cc12 | inactive: -25.1% | –
41 | COCCNC(=O)Cc1ccc(NC(=O)N2CCCCc3ccccc32)cc1 | – | inconclusive [activator, single point]
42 | CCOCCCNC(=O)NC(C)c1c(-n2cccc2)sc2c1CCN(CC)C2 (centres undefined) | inactive: -10.5% | –
43 | COc1ccc(N(Cc2cccs2)C(=O)COc2cccc(Cl)c2)cc1 | – | inconclusive [activator, single point]
44 | COc1ccc(NS(=O)(=O)c2ccc(F)cc2F)cn1 | inactive: 4.98% | –
45 | CCC(C(=O)Nc1ccc(C(=O)OC)cc1)n1c(=O)c(-c2ccccc2NC(C)=O)nc2ccccc21 (centres undefined) | inactive: -1.35% | –
46 | CC(=O)NC(c1ccc(N(C)C)cc1)c1cc(Cl)c2cccnc2c1O (centres undefined) | inconclusive: 32.7% [activator] | –
47 | Cc1ccc(NC(=O)CSc2nc3c(c(=O)[nH]2)CN(Cc2ccc4c(c2)OCO4)CC3)cc1C | – | inconclusive [activator, single point]
48 | CC(=O)C1C(=O)CC(c2ccc(Cl)cc2)CC1=O (centres undefined) | inconclusive: 63.8% [activator] | –
49 | CCC(Sc1nncn2c1cc1sccc12)C(=O)Nc1cccc(OC)c1 (centres undefined) | – | inconclusive [activator, single point]
